Experimental data from PubChem BioAssay (NCATS).
The shares of active, inactive and inconclusive entries below differ from those in the screen. A potency beside an inconclusive call is a rough fit, not a confirmed value. For some assays here: A note “side channel” means that the fit belongs to a control or component signal, not to the main read-out. The source made the active and inactive calls. Unless noted, the call rests on the fitted dose curve; in most records, active means well fitted inhibition curve with a large enough effect; inconclusive means small, poorly fitted or top-dose-only effect; inactive means no such curve, though single readings can be large or run the other way.

molecular target: Cytochrome P450 2C19 (Homo sapiens) (UniProt P33261); experiment: qHTS Assay for Inhibitors and Substrates of Cytochrome P450 2C19 (AID 899); settings: recombinant CYP2C19, luciferin-H EGE luminescence; activity, negative = inhibition: at 11.4 µM (top of the series); further: nearly all actives have a fitted effect of over 60% in size
UniProt P33261, sequence (P33261 whole entry, looked up): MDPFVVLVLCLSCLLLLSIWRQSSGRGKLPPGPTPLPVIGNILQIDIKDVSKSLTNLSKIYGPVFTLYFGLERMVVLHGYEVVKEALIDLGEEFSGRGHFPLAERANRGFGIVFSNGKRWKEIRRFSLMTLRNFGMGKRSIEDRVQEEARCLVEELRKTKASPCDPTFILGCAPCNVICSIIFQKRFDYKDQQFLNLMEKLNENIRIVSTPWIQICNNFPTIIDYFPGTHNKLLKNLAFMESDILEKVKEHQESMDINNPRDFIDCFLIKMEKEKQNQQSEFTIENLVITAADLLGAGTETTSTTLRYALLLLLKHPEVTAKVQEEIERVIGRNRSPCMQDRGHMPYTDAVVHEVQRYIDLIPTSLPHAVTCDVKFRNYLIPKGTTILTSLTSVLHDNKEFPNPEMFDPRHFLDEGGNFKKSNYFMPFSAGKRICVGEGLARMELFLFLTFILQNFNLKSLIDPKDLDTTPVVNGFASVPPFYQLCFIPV
In short: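 Reactions contain 5nM enzyme, 10uM Luciferin-H EGE (KM) and 50mM KPO4; compound preincubates 10 min at 37C, NADPH regeneration starts turnover for 60 min. Luminescence after detection reagent gives activity.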
Potency means the concentration at half of the fitted maximal effect; tags describe the fitted curve by direction and shape or compound fluorescence and quenching.

Structure (SMILES)	Potency
O=c1[nH]c2[nH]c(=S)[nH]c(=S)c2[nH]1	active: 631 nM
COC(=O)[C@@H]1CC[C@H](C)[C@@H](c2ccc(C)cc2)N1C(=O)c1ccc(/C=N\OC[C@@H](C)[C@H](OCc2ccccc2)C(C)C)cc1	inconclusive: 6310 nM [inhibitor, single point]
O=C(c1ccco1)N1CCC2(CC1)CN(c1ccc(-c3ccccc3)cc1)C2	inconclusive: 158 nM [inhibitor, full curve]

test system: not listed separately; experiment: qHTS Assay for Identification of Small Molecule Agonists for Hypoxia Response Element Signaling Pathway (AID 914; active means well fitted activation curve with a large enough effect in the signal ratio, with a control signal flat, not every such curve was filed as active; inconclusive means small, poorly fitted or top-dose-only effect, or effect the other way, or a change in a side signal; the % refers to the signal ratio; on activation: top concentration of the series differs between compounds; % of control where 0% means no effect); settings: ME-180 (cervical carcinoma) HRE-bla reporter, beta-lactamase ratio, CoCl2, 17 h; activation: active compounds read high
In short: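 A beta-lactamase reporter under hypoxia response element control in ME-180 cells served as the system. Compound titrations plus EC50 CoCl2 ran 17 h at 37 degrees Celsius; AC50 values were fitted from %Activity.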

Structure (SMILES)	activation	Potency
COc1ccc(/C(O)=C2/C(=O)C(=O)N(CCN(C)C)C2c2ccccn2)cc1OC (stereo not given)	inconclusive: 6.54%	
COc1cc(C2C3C(=O)N(c4ccc(F)cc4)C(=O)C3ON2c2ccccc2)ccc1O (stereo not given)	inactive: -4.56%	
NS(=O)(=O)c1ccc(NC(=O)Nc2ccccc2F)cc1	inactive: 3.83%	
Nc1ccc2c3c(cccc13)CC2	inconclusive: -16.2%	
CCOC(=O)C1=C(C)NC(C)=C(C(=O)OC)[C@@H]1c1cccc([N+](=O)[O-])c1		inconclusive: 3160 nM [inhibitor, partial curve]
C[C@@]12CC[C@@H]3c4ccc(O)cc4CC[C@H]3[C@H]1C[C@@H](O)[C@H]2O		inconclusive: 79.4 nM [inhibitor, partial curve, poor fit]
CC(=O)OCC(=O)[C@@]1(O)CC[C@@H]2[C@H]3CCC4=CC(=O)CC[C@]4(C)[C@]3(F)[C@@H](O)C[C@@]21C		inconclusive: 39.8 nM [inhibitor, full curve]
COc1ccc(Oc2ncc3ncc(=O)n(C4CC4)c3n2)cc1	inactive: -9.06%	
C[C@@H]1NCC[C@H](CC(=O)O)[C@H]1CC(=O)O	inactive: 3.32%	
NNC(=O)CCc1ccc2ccc3ccccc3c2c1		inconclusive: 3980 nM [inhibitor, single point]
CCc1nc(NCCN2CCOCC2)c(C#N)c2c1CCCC2	inconclusive: -30.4%	
COc1ccc(O[C@H]2C=C[C@@H](c3ccccc3)O[C@H]2CO/N=C2/c3cc(OC)ccc3O[C@@H](c3cccc(OC)c3)[C@H]2O)cc1		inconclusive: 3980 nM [inhibitor, single point]
Cc1nn(C)cc1C1C2=C(CC(C)(C)CC2=O)OC2=C1C(=O)CC(C)(C)C2	inactive: 1.79%	
CCN1/C(=C\C(C)=O)Sc2ccc(OC)cc21	inconclusive: -27.1%	
C[C@H](CCC(=O)NN)[C@@H]1CC[C@@H]2[C@H]3CC[C@H]4C[C@@H](O)CC[C@@]4(C)[C@@H]3CC[C@]21C		inconclusive: 1000 nM [cytotoxic, side channel, single point]
O=c1[nH]c2[nH]c(=S)[nH]c(=S)c2[nH]1	inconclusive: 0.992%	
O=C(c1ccco1)N1CCC2(CC1)CN(c1ccc(-c3ccccc3)cc1)C2		inconclusive: 2510 nM [inhibitor, partial curve]
